# Reference: the supplement of paper PMC8728848
# The other results are listed elsewhere or left out.
# B1: Siglec 6 (Homo sapiens), O43699 (protein)
# chain: MLPLLLPLLWAGALAQERRFQLEGPESLTVQEGLCVLVPCRLPTTLPASYYGYGYWFLEGADVPVATNDPDEEVQEETRGRFHLLWDPRRKNCSLSIRDARRRDNAAYFFRLKSKWMKYGYTSSKLSVRVMALTHRPNISIPGTLESGHPSNLTCSVPWVCEQGTPPIFSWMSAAPTSLGPRTTQSSVLTITPRPQDHSTNLTCQVTFPGAGVTMERTIQLNVSYAPQKVAISIFQGNSAAFKILQNTSSLPVLEGQALRLLCDADGNPPAHLSWFQGFPALNATPISNTGVLELPQVGSAEEGDFTCRAQHPLGSLQISLSLFVHWKPEGRAGGVLGAVWGASITTLVFLCVCFIFRVKTRRKKAAQPVQNTDDVNPVMVSGSRGHQHQFQTGIVSDHPAEAGPISEDEQELHYAVLHFHKVQPQEPKVTDTEYSEIKIHK
# Columns and labels:
# Test in all cases: glycan array binding signal (z-score within array); higher = stronger binding
# Conditions in all cases: glycan notation: IUPAC condensed, linker removed
# [1] = target: Neu5Ac(a2-3)Gal(b1-3)GalNAc(b1-3)Gal(a1-4)Gal(b1-4)Glc
# Procedure, shortened: (§1)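 The Consortium for Functional Glycomics database supplied 3228 glycan arrays, of which those lacking an available protein sequence were dropped. The binding signal, a within-array Z-score, was averaged across arrays of the same protein sequence and across linkers. Negative scores can be read as non-binding.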
# [2] = target: Neu5Ac(a2-3)Gal(b1-3)GalNAc(b1-4)[Neu5Ac(a2-3)]Gal(b1-4)Glc
# Procedure, shortened: as §1
# [3] = target: Neu5Ac(a2-3)Gal(b1-3)GalNAc6S
# Procedure, shortened: as §1
# [4] = target: Neu5Ac(a2-3)Gal(b1-3)GlcNAc
# Procedure, shortened: as §1
# [5] = target: Neu5Ac(a2-3)Gal(b1-3)GlcNAc(b1-3)Gal(b1-4)GlcNAc
# Procedure, shortened: as §1
# [6] = target: Neu5Ac(a2-3)Gal(b1-3)GlcNAc6S
# Procedure, shortened: as §1
# [7] = target: Neu5Ac(a2-3)Gal(b1-3)[Fuc(a1-4)]GlcNAc
# Procedure, shortened: as §1
# [8] = target: Neu5Ac(a2-3)Gal(b1-3)[Fuc(a1-4)]GlcNAc(b1-3)Gal(b1-4)[Fuc(a1-3)]GlcNAc
# Procedure, shortened: as §1
# [9] = target: Neu5Ac(a2-3)Gal(b1-3)[Neu5Ac(a2-3)Gal(b1-4)]GlcNAc
# Procedure, shortened: as §1
# [10] = target: Neu5Ac(a2-3)Gal(b1-3)[Neu5Ac(a2-6)]GalNAc
# Procedure, shortened: as §1
# Neu5Ac(a2-3)Gal(b1-4)Glc = target: Neu5Ac(a2-3)Gal(b1-4)Glc
# Procedure, shortened: as §1
# [11] = target: Neu5Ac(a2-3)Gal(b1-4)GlcNAc
# Procedure, shortened: as §1
# [12] = target: Neu5Ac(a2-3)Gal(b1-4)GlcNAc(b1-3)Gal(b1-4)GlcNAc
# Procedure, shortened: as §1
# [13] = target: Neu5Ac(a2-3)Gal(b1-4)GlcNAc(b1-3)Gal(b1-4)GlcNAc(b1-3)Gal(b1-4)GlcNAc
# Procedure, shortened: as §1
# [14] = target: Neu5Ac(a2-3)Gal(b1-4)GlcNAc(b1-3)Gal(b1-4)[Fuc(a1-3)]GlcNAc
# Procedure, shortened: as §1
# [15] = target: Neu5Ac(a2-3)Gal(b1-4)GlcNAc6S
# Procedure, shortened: as §1
# [16] = target: Neu5Ac(a2-3)Gal(b1-4)[Fuc(a1-3)]GlcNAc
# Procedure, shortened: as §1
# [17] = target: Neu5Ac(a2-3)Gal(b1-4)[Fuc(a1-3)]GlcNAc(b1-3)Gal
# Procedure, shortened: as §1
# [18] = target: Neu5Ac(a2-3)Gal(b1-4)[Fuc(a1-3)]GlcNAc(b1-3)Gal(b1-4)GlcNAc
# Procedure, shortened: as §1
# [19] = target: Neu5Ac(a2-3)Gal(b1-4)[Fuc(a1-3)]GlcNAc(b1-3)Gal(b1-4)[Fuc(a1-3)]GlcNAc(b1-3)Gal(b1-4)[Fuc(a1-3)]GlcNAc
# Procedure, shortened: as §1
# [20] = target: Neu5Ac(a2-3)Gal(b1-4)[Fuc(a1-3)]GlcNAc6S
# Procedure, shortened: as §1
# [21] = target: Neu5Ac(a2-3)Gal6S(b1-4)GlcNAc
# Procedure, shortened: as §1
# [22] = target: Neu5Ac(a2-3)Gal6S(b1-4)[Fuc(a1-3)]GlcNAc
# Procedure, shortened: as §1
# Neu5Ac(a2-3)GalNAc = target: Neu5Ac(a2-3)GalNAc
# Procedure, shortened: as §1
# [23] = target: Neu5Ac(a2-3)GalNAc(b1-4)GlcNAc
# Procedure, shortened: as §1
# [24] = target: Neu5Ac(a2-3)[GalNAc(b1-4)]Gal(b1-4)Glc
# Procedure, shortened: as §1
# [25] = target: Neu5Ac(a2-3)[GalNAc(b1-4)]Gal(b1-4)GlcNAc
# Procedure, shortened: as §1
# [26] = target: Neu5Ac(a2-3)[Neu5Ac(a2-6)]GalNAc
# Procedure, shortened: as §1
# [27] = target: Neu5Ac(a2-6)Gal(b1-4)GlcNAc
# Procedure, shortened: as §1
# [28] = target: Neu5Ac(a2-6)Gal(b1-4)GlcNAc(b1-2)Man(a1-3)[Neu5Ac(a2-6)Gal(b1-4)GlcNAc(b1-2)Man(a1-6)]Man(b1-4)GlcNAc(b1-4)GlcNAc
# Procedure, shortened: as §1
# [29] = target: Neu5Ac(a2-6)Gal(b1-4)GlcNAc(b1-3)Gal(b1-4)GlcNAc
# Procedure, shortened: as §1
# [30] = target: Neu5Ac(a2-6)Gal(b1-4)GlcNAc(b1-3)Gal(b1-4)[Fuc(a1-3)]GlcNAc(b1-3)Gal(b1-4)[Fuc(a1-3)]GlcNAc
# Procedure, shortened: as §1
# [31] = target: Neu5Ac(a2-6)Gal(b1-4)GlcNAc6S
# Procedure, shortened: as §1
# Neu5Ac(a2-6)GalNAc = target: Neu5Ac(a2-6)GalNAc
# Procedure, shortened: as §1
# [32] = target: Neu5Ac(a2-6)GalNAc(b1-4)GlcNAc
# Procedure, shortened: as §1
# Neu5Ac(a2-8)Neu5Ac = target: Neu5Ac(a2-8)Neu5Ac
# Procedure, shortened: as §1
# [33] = target: Neu5Ac(a2-8)Neu5Ac(a2-3)Gal(b1-4)Glc
# Procedure, shortened: as §1
# [34] = target: Neu5Ac(a2-8)Neu5Ac(a2-3)[GalNAc(b1-4)]Gal(b1-4)Glc
# Procedure, shortened: as §1
# [35] = target: Neu5Ac(a2-8)Neu5Ac(a2-8)Neu5Ac
# Procedure, shortened: as §1
# [36] = target: Neu5Ac(a2-8)Neu5Ac(a2-8)Neu5Ac(a2-3)Gal(b1-4)Glc
# Procedure, shortened: as §1
# [37] = target: Neu5Ac(a2-8)Neu5Ac(a2-8)Neu5Ac(a2-3)[GalNAc(b1-4)]Gal(b1-4)Glc
# Procedure, shortened: as §1
# [38] = target: Neu5Ac(a2-8)Neu5Ac(a2-8)Neu5Ac(a2-8)Neu5Ac(a2-3)[GalNAc(b1-4)]Gal(b1-4)Glc
# Procedure, shortened: as §1
# [39] = target: Neu5Ac9Ac(a2-6)Gal(b1-4)GlcNAc
# Procedure, shortened: as §1
# [40] = target: Neu5Gc(a2-3)Gal(b1-3)GlcNAc
# Procedure, shortened: as §1
# [41] = target: Neu5Gc(a2-3)Gal(b1-3)[Fuc(a1-4)]GlcNAc
# Procedure, shortened: as §1
# Neu5Gc(a2-3)Gal(b1-4)Glc = target: Neu5Gc(a2-3)Gal(b1-4)Glc
# Procedure, shortened: as §1
# [42] = target: Neu5Gc(a2-3)Gal(b1-4)GlcNAc
# Procedure, shortened: as §1
# [43] = target: Neu5Gc(a2-3)Gal(b1-4)[Fuc(a1-4)]GlcNAc
# Procedure, shortened: as §1
# [44] = target: Neu5Gc(a2-6)Gal(b1-4)GlcNAc
# Procedure, shortened: as §1
# Neu5Gc(a2-6)GalNAc = target: Neu5Gc(a2-6)GalNAc
# Procedure, shortened: as §1
binder,measurement,setting,value
B1,glycan array binding signal (z-score),[1],0.476
same,glycan array binding signal (z-score),[2],-0.36
same,glycan array binding signal (z-score),[3],-0.099
same,glycan array binding signal (z-score),[4],-0.151
same,glycan array binding signal (z-score),[5],-0.167
same,glycan array binding signal (z-score),[6],-0.367
same,glycan array binding signal (z-score),[7],-0.566
same,glycan array binding signal (z-score),[8],-0.38
same,glycan array binding signal (z-score),[9],-0.33
same,glycan array binding signal (z-score),[10],-0.317
same,glycan array binding signal (z-score),Neu5Ac(a2-3)Gal(b1-4)Glc,-0.332
same,glycan array binding signal (z-score),[11],-0.357
same,glycan array binding signal (z-score),[12],-0.522
same,glycan array binding signal (z-score),[13],-0.468
same,glycan array binding signal (z-score),[14],-0.55
same,glycan array binding signal (z-score),[15],-0.039
same,glycan array binding signal (z-score),[16],-0.244
same,glycan array binding signal (z-score),[17],-0.361
same,glycan array binding signal (z-score),[18],-0.028
same,glycan array binding signal (z-score),[19],-0.016
same,glycan array binding signal (z-score),[20],-0.113
same,glycan array binding signal (z-score),[21],-0.111
same,glycan array binding signal (z-score),[22],-0.501
same,glycan array binding signal (z-score),Neu5Ac(a2-3)GalNAc,-0.498
same,glycan array binding signal (z-score),[23],-0.4
same,glycan array binding signal (z-score),[24],-0.509
same,glycan array binding signal (z-score),[25],-0.145
same,glycan array binding signal (z-score),[26],-0.568
same,glycan array binding signal (z-score),[27],-0.266
same,glycan array binding signal (z-score),[28],-0.377
same,glycan array binding signal (z-score),[29],-0.476
same,glycan array binding signal (z-score),[30],-0.216
same,glycan array binding signal (z-score),[31],-0.044
same,glycan array binding signal (z-score),Neu5Ac(a2-6)GalNAc,-0.389
same,glycan array binding signal (z-score),[32],-0.157
same,glycan array binding signal (z-score),Neu5Ac(a2-8)Neu5Ac,0.187
same,glycan array binding signal (z-score),[33],-0.16
same,glycan array binding signal (z-score),[34],0.09
same,glycan array binding signal (z-score),[35],-0.276
same,glycan array binding signal (z-score),[36],-0.541
same,glycan array binding signal (z-score),[37],-0.466
same,glycan array binding signal (z-score),[38],-0.598
same,glycan array binding signal (z-score),[39],-0.211
same,glycan array binding signal (z-score),[40],-0.386
same,glycan array binding signal (z-score),[41],-0.488
same,glycan array binding signal (z-score),Neu5Gc(a2-3)Gal(b1-4)Glc,-0.162
same,glycan array binding signal (z-score),[42],-0.551
same,glycan array binding signal (z-score),[43],-0.201
same,glycan array binding signal (z-score),[44],-0.078
same,glycan array binding signal (z-score),Neu5Gc(a2-6)GalNAc,-0.532
